Assay results reported in the supplement of paper PMC11417369.
± gives the standard deviation of the averaged measurements. Some of the results follow.

These sequences were tested on PfAP2-I AP2 domain 3 (GST-tagged) (assay: gcPBM binding intensity (ln(normalized median fluorescence intensity)); higher = stronger DNA binding).
Procedure, shortened: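 Binding of GST-tagged P. falciparum DNA-binding domains, expressed in E. coli and used at about 25 μg on average, was carried out for 1 h in 1× PBS containing 1% milk, 0.2 mg/ml BSA, 0.5% salmon testes DNA and 0.03% Triton X-100. The target was an Agilent 4 × 180k array of primer-extended double-stranded 36-bp intergenic genomic probes plus negative controls, read with Alexa488 anti-GST antibody at 488 nm. Binding intensity is the highest Masliner-normalised natural-log median intensity across replicate spots of either probe orientation.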

Row | Sequence | gcPBM binding intensity (ln)
1 | GTATTATATATATAGGTGCATATATATATATAAATA [GTGCAC_site9787] | 10.6 ± 0.33
2 | ATGATATGGATAAATACACACAATAAAATAATGTCT [CACACA_site6786] | 7.79 ± 0.73
3 | TTTATTTATTTATGTTGTACAAGTTTATACTGGAAT [XGTACX_site6479] | 8.06 ± 0.42
4 | TTTTAACAAAACAAAACAAAATAATATAAAGATAAC [TGCATGCA_negctrl_site154] | 8.16 ± 0.59
5 | TTTTGATATAAAAAAAGTACATTAATAATATTAATT [XGTACX_site4248] | 7.885 ± 0.078
6 | TAAATAATAATAAATGTGCACAGGTATTAACAAAAA [GTGCAC_site9988] | 9.38 ± 0.93
7 | CAGTATTCTTCTATATGTACTTATTTAAATATTCTT [XGTACX_site7555] | 7.93 ± 0.53
8 | AATCAAAATTCATTAACACACAATTTTAATATTCTT [CACACA_site5178] | 7.59 ± 0.56
9 | TATTTTTATAAGAGCATGCACTGTTTAAAATGGTAT | 8.37 ± 0.45
10 | TTTTTTAAAATATGGACACACATATATATATATGTA [CACACA_site2784] | 7.67 ± 0.3
11 | AGAAAGAATGAAAAATGTACATATATGTAATAGCTA [XGTACX_site364] | 7.87 ± 0.39
12 | TAAAATTTAAAAAGGTGTACACTATAAATTAAAATA [XGTACX_site2081] | 8.11 ± 0.7
13 | ATAAAATCATTCAATGGTACAGAAATACAAAATGTA [XGTACX_site6739] | 7.61 ± 0.64
14 | TTAACATATGACATTTTTTCACCCTTCCTTTATTTT [CACACA_negctrl_site1192] | 7.86 ± 0.74
15 | TATGTATAAAAATATTGTACATATTATATATATATA [XGTACX_site2947] | 8.905 ± 0.049
16 | AGGTCACATTTGTCCTCACACATAGATAAATATATA [CACACA_site5460] | 7.69 ± 0.45
17 | TTTTTTTTTTTTTTTTTTTGATTCTTATAAAAATTT [GTGCAC_negctrl_site240] | 7.94 ± 0.62
18 | ATAATTTGATCAATTTTTCATTTTTCATTTTTTTAA [CACACA_negctrl_site1252] | 7.52 ± 0.62
19 | AATTAGCATTAAAAATGTACAAAAGAAAAAAATATA [XGTACX_site3816] | 7.61 ± 0.64
20 | GTCAAAAATAATATATGTACTTATAATAGATAAATG [XGTACX_site7755] | 7.93 ± 0.28
21 | GTATATAATTATATATGTACTAAATAAATATTTTTA [XGTACX_site6062] | 7.55 ± 0.36
22 | AAAAAATAAAAAAATAAAAAATAAAAAATAAAAAAT [TGCATGCA_negctrl_site90] | 7.46 ± 0.59

Row | Sequence | gcPBM binding intensity (ln)
23 | TTTTCTAAAAAAAGTTGTACATCTTATTTATATTAT [XGTACX_site295] | 7.69 ± 0.49
24 | ATGTAAGACAAAAAGGGTACATAATGCGTATGTATT [XGTACX_site4666] | 8.03 ± 0.72
25 | AAAAATTACCCATCCATACACACATATTTTTTTTAA [CACACA_site2190] | 8 ± 0.49
26 | TATAAAAATAAATAAATAAATAAATAAATAAATAAA [TGCATGCA_negctrl_site310] | 7.74 ± 0.58
27 | AATATTTTTATATATATACACACTTACATATATATA [CACACA_site3609] | 7.88 ± 0.47
28 | ATAATATTGTGGTATACACACCTTACAAAAAGGTAC [CACACA_site5582] | 8.01 ± 0.64
29 | TTTTTAGTTAATTAAACACACAAAAAAAAAAATAAA [CACACA_site3930] | 7.6 ± 0.45
30 | ATTTTTTCATATTCTACACACGTGAACAAATGTGTC [CACACA_site3007] | 8.09 ± 0.59
31 | TATATTTGGTTTCATTCATTTTTATAGAAATCTCAA [CACACA_negctrl_site1412] | 7.58 ± 0.35
32 | TATTTTTTTACATATTGTACATAATATAAAACTTAC [XGTACX_site8273] | 7.98 ± 0.41
33 | CACACGTATATATATACACACTAAAATACCCAGACA [CACACA_site6142] | 8.06 ± 0.57
34 | ATATAATAGAAGTGTACACACATATTTATGGGTGTA [CACACA_site5686] | 7.82 ± 0.32
35 | AATGACTACATAATAGTGCAATATTAAAGAAAATTA | 10.8 ± 0.55
36 | ATTCTTAAAAAAAAATGTACACATGAACAATATGTA [XGTACX_site362] | 7.63 ± 0.38
37 | TGTATATCATAAGATGGTACACGTGTGTGCGTATGC [XGTACX_site2255] | 8.71 ± 0.29
38 | TATATATTATATATGTGTACTCACTAACAAAAATTA [XGTACX_site6285] | 7.82 ± 0.33
39 | AGGTGAATATTTTTTACACACATAAAAAAAATATAT [CACACA_site57] | 8.12 ± 0.26
40 | TTTAAGATTTTGTAATGTACATATATACATATATAT [XGTACX_site399] | 7.77 ± 0.41
41 | TATATTTTTATAATAACACACGATATATGTTTAGGA [CACACA_site1283] | 8.1 ± 0.55
42 | AAATTATATAAAGGAACACACATTTTATTTTATTTT [CACACA_site1500] | 7.5 ± 0.49
43 | TATAAATCTATAAATGCACACAAGGGAAGAAAAACG [CACACA_site2965] | 9.46 ± 0.26
44 | AAAGAACAAATAAAACATAAAATAATATATATAGAT [CACACA_negctrl_site1764] | 7.79 ± 0.64

Row | Sequence | gcPBM binding intensity (ln)
45 | CAAACAATTAAACAAACACACATATACAAGTATATA [CACACA_site8639] | 7.34 ± 0.35
46 | TATTATTCCAAGAAAAAAAAAAATAAAAAAAAAAAA [CACACA_negctrl_site1424] | 8.03 ± 0.76
47 | ATTAAAATTTGTTAAAGTACTTAATAAAAATTTTTC [XGTACX_site1959] | 7.63 ± 0.36
48 | ACAACAATTCACTTGATGCACTAACCAAAAAAATAA | 10.1 ± 0.38
49 | CACGCACGCAGACACACACACACACGCACATATATA [CACACA_site6303] | 8.17 ± 0.4
50 | ACATATATTTTTTTTTGTACATATAAATATATATAT [XGTACX_site6491] | 8.7 ± 0.39
51 | ATTAAAATATAAGTCACACATATATATATATATATA [CACACA_site6145] | 9.16 ± 0.52
52 | TATTTTTTTTTATTTTTTTTTATTTTGTTTTTTTAT [TGCATGCA_negctrl_site315] | 7.32 ± 0.52
53 | ATATATTTTCCTTCAAGTACACATATAAATGTGTAT [XGTACX_site6633] | 7.97 ± 0.4
54 | AAAAAAATAATCATCACACACGGAGAATGTCCAATA [CACACA_site5305] | 7.55 ± 0.65
55 | AACGTAAAACATATCTATCAAAATAAATCATTAATC [TGCATGCA_negctrl_site68] | 7.46 ± 0.54
56 | AATATAATAATATTTTGTACATATCCTATGTATGAG [XGTACX_site8601] | 7.64 ± 0.35
57 | TTTTTTTTTACTGCATGTACTTGATGTAAATAAATT [XGTACX_site3045] | 8.15 ± 0.75
58 | AATGGAAATTTTTCTTGTACACATATATGACATGTT [XGTACX_site1691] | 7.71 ± 0.59
59 | AATATGACGTAGTGGTGTACACACATGGTACCTTTA [XGTACX_site3147] | 8.21 ± 0.45
60 | TTATAAATATAATTTTGTACATATATATATATATAC [XGTACX_site5064] | 7.77 ± 0.48
61 | TTAGAACTATTTTATACATGCAGTTATTTAATACTT [TGCATGCA_site1039] | 7.57 ± 0.71
62 | TATAGAATAATCTATAAACACACAAACACAACAAAA [CACACA_site9374] | 8.18 ± 0.28
63 | AAAAGATAATTATGCACACACACACCCCCACCCAAC [CACACA_site2570] | 10.71 ± 0.057
64 | TGTAGCCTGGAGAAGAGTACATAGTATCTGGTAGCT [XGTACX_site4943] | 7.85 ± 0.79
65 | CGTATGTGCGGACATGCATGCAATATACAAGAAAAA [TGCATGCA_site145] | 8.48 ± 0.82
66 | TTTTTTTTTTGAAGTGCATGTTACGATGAAAAAAAA [TGCATGCA_site64] | 9.025 ± 0.035

Row | Sequence | gcPBM binding intensity (ln)
67 | GTATATTAATAAACATGTACACAATTTATTTATATT [XGTACX_site1012] | 7.93 ± 0.41
68 | TTTTTTTTTAAATGTTGTACATTATATTTGTGTATA [XGTACX_site8354] | 7.87 ± 0.54
69 | CTAAATAACTTAAGGTGTACGTTTCCAATAAAAAAA [XGTACX_site1742] | 7.78 ± 0.53
70 | ACATATAAAATGATGCGTACATATTTGATCATATAC [XGTACX_site153] | 7.95 ± 0.4
71 | TTTTAAAAAGATCATTAAAAAAAAAAAAAGAACAAA [CACACA_negctrl_site528] | 7.57 ± 0.62
72 | ATAATATAACAATACGCACACGTATACAAAAAAAAA [CACACA_site5703] | 8.4 ± 0.28
73 | AAATAATGGTTAGCTACACACAAAGCATTTTTTGAA [CACACA_site1016] | 7.34 ± 0.78
74 | TGTCTTGTAAATTATTGTACTATTTAAAGTATACAA [XGTACX_site7864] | 7.67 ± 0.6
75 | TTGTATATATTTATATGTACATATATTACTTTTGCT [XGTACX_site2449] | 7.54 ± 0.47
76 | AAAATACAAACAAGTGGTACTGTTTATAAATGGTTG [XGTACX_site1503] | 7.49 ± 0.55
77 | TATCCTAACTTTAGATGTACACAAATAAAAAAAAAA [XGTACX_site4491] | 8.12 ± 0.5
78 | CCATATAAAATATAAAAACACACGTATATATACATA [CACACA_site1511] | 7.54 ± 0.57
79 | ACAAAATGTAGAAAATGTACAAAATTAACAAAAGAA [XGTACX_site5019] | 8.03 ± 0.68
80 | ATTCAATCTTTTAATACACACAATTTATTTCAAAAC [CACACA_site835] | 7.98 ± 0.51
81 | TGTACATATATATAGATATATATAGATATATATATA [CACACA_negctrl_site1678] | 9.065 ± 0.035
82 | CACATATAAATATTAACACACATAATGAGTTATATA [CACACA_site7316] | 7.59 ± 0.22
83 | TTATTAAGTAAATCACATTTAATTTTTTTTTTTTTT [CACACA_negctrl_site1280] | 7.67 ± 0.28
84 | TTATACCATATTTATAGTACGTACAAATAAATCAAT [XGTACX_site4975] | 7.97 ± 0.35
85 | AAGAAAAAAAAAAAAAGTACATGCAATATGGATCTT [XGTACX_site3106] | 8.03 ± 0.86
86 | AAACAACATATATTAATATGTACATATATATAGATA [GTGCAC_negctrl_site229] | 7.7 ± 0.35
87 | TTTTTATTGTTATAGTTATAATATATTATTTGATTA [XGTACX_negctrl_site27] | 7.58 ± 0.43
88 | TTTTTTTTTTTTGTAACACACAATAATATAACATTA [CACACA_site3411] | 8.03 ± 0.83
